# Measured values published in the supplement of paper PMC3334620.
# Whole data set: some 33,000 sequences, median “E-score (-0.5 to 0.5)” near -0.012, cut for the highest 2% near 0.27. The list shows a part of the results.
# Biological target: T1, Vhr1 (UniProt P40522)
# T1 sequence: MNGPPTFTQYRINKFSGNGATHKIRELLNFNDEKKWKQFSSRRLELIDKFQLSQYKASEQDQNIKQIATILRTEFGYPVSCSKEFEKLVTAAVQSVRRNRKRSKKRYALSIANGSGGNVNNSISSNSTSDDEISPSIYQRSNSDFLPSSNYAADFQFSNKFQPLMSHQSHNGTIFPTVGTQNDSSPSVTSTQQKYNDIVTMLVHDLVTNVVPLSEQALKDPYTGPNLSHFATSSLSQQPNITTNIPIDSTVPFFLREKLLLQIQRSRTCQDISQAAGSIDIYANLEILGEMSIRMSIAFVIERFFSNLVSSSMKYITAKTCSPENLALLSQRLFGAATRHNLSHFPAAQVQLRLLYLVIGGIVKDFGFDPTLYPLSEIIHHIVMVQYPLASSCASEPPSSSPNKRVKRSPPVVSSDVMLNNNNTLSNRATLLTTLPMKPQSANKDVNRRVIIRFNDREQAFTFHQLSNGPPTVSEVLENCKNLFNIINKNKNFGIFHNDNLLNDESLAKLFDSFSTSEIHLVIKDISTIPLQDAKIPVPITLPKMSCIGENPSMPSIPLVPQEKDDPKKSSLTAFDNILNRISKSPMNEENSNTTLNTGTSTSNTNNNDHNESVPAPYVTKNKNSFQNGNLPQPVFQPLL
# Assay: PBM E-score (8-mer binding enrichment) (E-score (-0.5 to 0.5)); higher = stronger / more preferred TF binding; most listed sequences are background and not binding sites
# Settings: protein concentration: 200 nM; construct: GST-full length
# Protocol: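 Universal 'all 10-mer' protein binding microarrays (Agilent AMADID 015681) probed with GST-tagged S. cerevisiae TFs (full-length or DBD) made by in vitro transcription/translation (PURExpress), about 100-200 nM. Bound TF was detected with fluorescent anti-GST. Each ungapped 8-mer (which stands for itself and its reverse complement) is scored by the PBM enrichment score (E-score), a modified Wilcoxon-Mann-Whitney statistic from -0.5 to +0.5, computed with the Universal PBM Analysis Suite. Scale: above 0.35 generally sequence-specific binding.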
row,Sequence,PBM E-score
1,ACGGTCAC,-0.0582
2,CCCATGCC,0.101
3,CAGCAGCC,0.0977
4,CGTACCAC,-0.146
5,GCTACCCC,-0.125
6,CAGAAGGG,-0.226
7,GACACACA,0.298
8,ATCCGCCC,0.0504
9,ACGCCACG,-0.154
10,CCGCCAGA,0.129
11,CCCAGGCA,0.0398
12,AGACGTAC,-0.00933
13,AACCTCTC,-0.172
14,AACGGCCG,0.00713
15,CGATACTC,-0.00981
16,CCGTGAGG,0.0593
17,TCGTTAGA,-0.259
18,CTGTTGGC,-0.0833
19,ATGCGGAG,0.0129
20,AGTTCTAT,-0.0616
21,ACAACATG,0.224
22,ACGAGTGA,0.0168

row,Sequence,PBM E-score
1,ACACCTAT,0.151
2,TGTTAGAA,-0.163
3,GTAACTTA,0.0909
4,GGTTTCAC,-0.109
5,GGCTGGGA,-0.0889
6,GCCTCTCA,-0.211
7,CATCCCGA,0.128
8,GTATAAAA,-0.0845
9,AAACCCTT,-0.0985
10,GATATCTA,-0.0136
11,CATCGCCA,0.0893
12,ACGATGTC,0.117
13,AGCGTTAT,-0.219
14,CCAAGATA,0.15
15,AACTGGCC,-0.114
16,CATGCCAG,0.0228
17,GTTCTCTA,-0.292
18,CGCTTAGA,-0.295
19,GAAGGTGC,-0.195
20,CGCCGTGC,0.0149
21,ACATTTAG,-0.191
22,TCGATCGA,0.2

row,Sequence,PBM E-score
1,AATCCTGG,-0.0483
2,GCTCGCGA,0.226
3,GATAGGTA,0.0484
4,TACTAGCA,0.0335
5,AGTGTTTG,0.261
6,TCCAGTAA,-0.197
7,CCCACGAA,0.00982
8,CTTAGGAC,-0.143
9,CGGTTGCA,-0.102
10,ACGAATCG,0.0809
11,CGGAGCCG,0.188
12,GATACAGA,0.129
13,AGCGAACG,-0.0842
14,ATTTCGCC,-0.0266
15,CGTTTCTA,-0.126
16,ATCATGAG,0.235
17,GATACCTA,0.163
18,AGCTACAC,0.131
19,CGGCTGAC,0.156
20,CTTCTCGC,-0.146
21,GAGTGATC,0.142
22,ATTTACGA,-0.107

row,Sequence,PBM E-score
1,ATCTGACC,0.00776
2,TAGGCAGA,0.0248
3,GCTGGGCA,0.00419
4,AGGTCCTC,-0.0875
5,AGCGTGAA,-0.267
6,ACCAACTA,0.0969
7,TCCGGAGA,-0.158
8,CATCATCG,0.16
9,CCACCTAG,-0.0411
10,AAGACCGC,-0.213
11,CTGTAGAC,-0.0233
12,ATACTCGA,0.148
13,CGCGCGCG,0.286
14,TCGCTGCA,-0.0417
15,CTGGATTA,0.0744
16,TTACACAA,0.0848
17,TCCGCTAA,-0.189
18,ACCCTTCT,-0.153
19,CGCCGTCA,-0.0741
20,CGCTGTAC,0.0335
